The structures appear in SMILES notation. This is one part of the list. Further columns of the screen follow, without active or inactive calls.

29 molecules from PubChem BioAssay AID1745853 (National Center for Advancing Translational Sciences (NCATS), 2022) can be followed below.

Common to all, as to test: Primary Screen for Target Class Profiling of Small Molecule Inhibitors of Methyltransferases
In assay [1] the target is Glycine N-methyltransferase (Homo sapiens) (UniProt Q14749). The settings on record: purified enzyme, MTase-Glo SAH luminescence; measured here: GNMT inhibition; at 40 µM; stronger effect = lower value. In short, it runs like this:
(§1)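 Each enzyme was assayed with SAM and its substrate. SAH formation detected by MTase-Glo luminescence; single-point 40 uM screen[…].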

The target of assay [2] is Guanidinoacetate N-methyltransferase (Homo sapiens) (UniProt Q14353). The settings on record: purified enzyme, MTase-Glo SAH luminescence; measured here: GAMT inhibition; at 40 µM; stronger effect = lower value. Put shortly: as §1
The target in assay [3] is Histamine N-methyltransferase (Homo sapiens) (UniProt P50135). The settings on record: purified enzyme, MTase-Glo SAH luminescence; measured here: HNMT inhibition; at 40 µM; stronger effect = lower value. Put shortly:
as §1

The target in assay [4] is Nicotinamide N-methyltransferase (Homo sapiens) (UniProt P40261). The settings on record: purified enzyme, MTase-Glo SAH luminescence; measured here: NNMT inhibition; at 40 µM; stronger effect = lower value. In short, it runs like this: as §1
The target of assay [5] is Phenylethanolamine N-methyltransferase (Homo sapiens) (UniProt P11086). The settings on record: purified enzyme, MTase-Glo SAH luminescence; measured here: PNMT inhibition; at 40 µM; stronger effect = lower value. In short, it runs like this:
as §1
% is scaled to controls: 0 for no effect and ±100 for the full control effect.

Consider `COC(=O)[C@@H]1Cc2ncn(Cc3ccc(Cl)cc3)c2CN1Cc1ccc(N(C)C)cc1`, for which the activity change, negative = inhibition in assay [1] is -9.62%; in assay [2], -3.38%; in assay [3], -1.91%; in assay [4], -6.44%; in assay [5], 1.8%.

In the case of `CCCn1c(=O)c2ccc(C(=O)NC(C)CC)cc2n2c(=O)n(Cc3c(F)cccc3Cl)nc12` (stereo not given), the activity change, negative = inhibition in assay [1] came to 4.79%; in assay [2], 1.19%; in assay [3], 6.94%; in assay [4], 7.82%; in assay [5], 6.79%.

Take `CCN1C(=O)c2cc(C(=O)N3CCN(c4cc(C)ccc4C)CC3)nn2CC1(C)C(=O)NC1CCCC1` (stereo not given): the activity change, negative = inhibition was 1.85% in assay [1]; 0.313% in assay [2]; 3.02% in assay [3]; 1.74% in assay [4]; 4.11% in assay [5].

On to `CC/C=C/CC1=C(CCCCC(CCC(=O)O)OC(C)=O)CCC1=O` (stereo not given), for which the activity change, negative = inhibition was -1.21% in assay [1]; -13.6% in assay [2]; 4.79% in assay [3]; -27.6% in assay [4]; -10.9% in assay [5].

As to `CON(C)C(=O)N1N=C(c2cc(F)ccc2F)S[C@@]1(CCCN)c1ccccc1`, the activity change, negative = inhibition in assay [1] is -0.042%; in assay [2] it was 3.58%; in assay [3], -1.91%; in assay [4] it was -15.3%; in assay [5], -6.05%.

For the molecule `CC(=O)N1CCC(N[C@@H]2CO[C@H](CNS(C)(=O)=O)[C@H]2O)CC1`, the activity change, negative = inhibition is -5.21% in assay [1]; -7.56% in assay [2]; -2.36% in assay [3]; -10.1% in assay [4]; -10.2% in assay [5].

On to `Cc1nc(C2CC(O)C2)cc(N2CCC(OCc3cccnc3)CC2)n1` (stereo not given), for which the activity change, negative = inhibition in assay [1] was -1.48%; in assay [2], -1.42%; in assay [3] it was -3.33%; in assay [4], -2.67%; in assay [5] it was 0.93%.

For the molecule `CC1(C(=O)NC2CCCCCC2)Cc2ccccc2C(=O)N1Cc1ccccc1Cl` (stereo not given), the activity change, negative = inhibition in assay [1] is -2.9%; in assay [2], 1.4%; in assay [3] it was -0.506%; in assay [4] it was 3.71%; in assay [5], -1.45%.

For `O=C(Cn1ccc2cc(S(=O)(=O)N3CCCCC3)ccc21)NCCN1CCOCC1`, the activity change, negative = inhibition turned out to be 7.43% in assay [1]; 2.33% in assay [2]; 2.06% in assay [3]; 4.99% in assay [4]; 0.852% in assay [5].

Take `CC(C)NC(=O)N1Cc2c(sc3c2CCCC3)-n2cccc2C1c1ccccc1` (stereo not given): the activity change, negative = inhibition in assay [1] is -11.9%; in assay [2], 2.19%; in assay [3] it was 3.63%; in assay [4] it was -18%; in assay [5], -3.1%.

For the molecule `CC(CN1C(=O)c2ccc(-c3ccco3)n2CC1(C)C(=O)NC1CCCCC1)c1ccccc1` (stereo not given), the activity change, negative = inhibition in assay [1] is -7.16%; in assay [2] it was 2.84%; in assay [3], -1.52%; in assay [4] it was -12.5%; in assay [5] it was -7.46%.

As for `CCOC(=O)C1CCCN(c2nc3c(-c4cccc(F)c4)nnn3c3ccc(Cl)cc23)C1` (stereo not given), the activity change, negative = inhibition in assay [1] is 2.58%; in assay [2], 5.26%; in assay [3], 7.47%; in assay [4] it was 8.19%; in assay [5], -0.629%.

On to `COc1ccc2cc3n(c2c1)CC(C)(C(=O)NC1CCCC1)N(c1ccccc1OC)C3=O` (stereo not given), for which the activity change, negative = inhibition is 0.316% in assay [1]; 2.04% in assay [2]; 3.23% in assay [3]; -5.23% in assay [4]; -0.302% in assay [5].

Regarding `CC(C)(C)c1cc(C(=O)O)c(NC(=O)Nc2ccc3[nH]ncc3c2)s1`, the activity change, negative = inhibition in assay [1] is -6.27%; in assay [2], 1.29%; in assay [3] it was 7.37%; in assay [4], -17.7%; in assay [5] it was 5.15%.

Consider `CCOC(=O)c1cc2n(n1)CC(C)(C(=O)NC1CCCC1)N(c1cccc(CC)c1)C2=O` (stereo not given), for which the activity change, negative = inhibition in assay [1] is -1.34%; in assay [2] it was 2.61%; in assay [3], -1.33%; in assay [4], -2.72%; in assay [5] it was -2.87%.

As for `O=C(c1ccc(-c2noc(C3CC3)n2)cc1)N1CCC2(CCOCC2)CC1`, the activity change, negative = inhibition in assay [1] is -7.07%; in assay [2], -11.4%; in assay [3], -3.9%; in assay [4], -15.6%; in assay [5] it was -8.95%.

Regarding `CSCC(=O)NCCC[C@H](NC(=O)[C@@H]1[C@@H](NC(=O)NC2CCCCC2)CCN1C(=O)CSC)C(N)=O`, the activity change, negative = inhibition in assay [1] is -5.75%; in assay [2], -6.85%; in assay [3], -6.6%; in assay [4], -10.1%; in assay [5] it was -0.231%.

Take `Cc1nc2c3ccccc3n3c(CCCC(=O)N4CCN(Cc5ccccc5)CC4)nnc3n2n1`: the activity change, negative = inhibition in assay [1] was -29.2%; in assay [2], 0.074%; in assay [3] it was 5.17%; in assay [4], 3.64%; in assay [5], 1.87%.

In the case of `O=c1[nH]c2ccc(S(=O)(=O)NC3CCN(Cc4ccccc4)CC3)cc2[nH]1`, the activity change, negative = inhibition in assay [1] was 3.83%; in assay [2], 0%; in assay [3], -2.27%; in assay [4], -6.24%; in assay [5], -2.48%.

For `CN(C)c1ccc(-c2nc3ncc(Cl)c(N4CCN(CC(=O)Nc5nccs5)CC4)c3[nH]2)cc1`, the activity change, negative = inhibition in assay [1] was 5.16%; in assay [2], -8.65%; in assay [3] it was 0.942%; in assay [4], -23.6%; in assay [5], -3.85%.

Regarding `O=C1CCCC2=C1C(c1[nH]ncc1Cl)N=C(Nc1nc3ccccc3o1)N2` (stereo not given), the activity change, negative = inhibition was -7.72% in assay [1]; 4.14% in assay [2]; 10% in assay [3]; -40% in assay [4]; 9.1% in assay [5].

For `COCCN1C(=O)c2nc3ccccc3n2CC1(C)C(=O)NC1CCCCC1C` (stereo not given), the activity change, negative = inhibition in assay [1] amounted to 3.75%; in assay [2], 1.35%; in assay [3], 0.357%; in assay [4], 10.9%; in assay [5], 1.42%.

For `CC(C)Cn1c(=O)c2ccccc2n2c(SCc3cccc(Cl)c3)nnc12`, the activity change, negative = inhibition is -1.86% in assay [1]; 0% in assay [2]; 4.89% in assay [3]; -11% in assay [4]; 5.04% in assay [5].

As to `COc1ccc(NC(=O)Cn2nc3n(Cc4ccc(F)cc4)c(=O)c4ccccc4n3c2=O)cc1OC`, the activity change, negative = inhibition in assay [1] came to 3.27%; in assay [2], 0%; in assay [3], 9.56%; in assay [4] it was 7.46%; in assay [5] it was 5.5%.

Regarding `COc1ccc(CN2C(=O)c3c(NC(C)=O)c4ccccc4n3CC2(C)C(=O)NC2CCCC2)cc1` (stereo not given), the activity change, negative = inhibition in assay [1] was found to be 0.959%; in assay [2], 0%; in assay [3] it was 5.1%; in assay [4], 6.54%; in assay [5], 4.62%.

Regarding `Cn1c(=O)n(C)c2cc(S(=O)(=O)Nc3cc4c(cc3NCc3ccccc3)n(C)c(=O)n4C)ccc21`, the activity change, negative = inhibition was -27.2% in assay [1]; -14.5% in assay [2]; -39.9% in assay [3]; -23.2% in assay [4]; -14% in assay [5].

Take `CNC(=O)[C@H]1O[C@@H](n2cnc3c(NCc4ccc(I)cc4)nc(Cl)nc32)[C@H](O)[C@@H]1O`: the activity change, negative = inhibition was -29.1% in assay [1]; -1.97% in assay [2]; -1.31% in assay [3]; -17% in assay [4]; -4.17% in assay [5].

With `C/C=C(/C)C(=O)O[C@H]1C=C(C)C[C@H](OC(=O)c2ccc(O)cc2)C2[C@](O)(C(C)C)CC[C@@]21C` (stereo not given in full), the activity change, negative = inhibition in assay [1] is 0%; in assay [2] it was 7.67%; in assay [3], 9.32%; in assay [4], -10.8%; in assay [5], 2.08%.

In the case of `COc1ccc(CN2C(=O)c3cc4occc4n3CC2(C)C(=O)NC2CCC(C)CC2)cc1` (stereo not given), the activity change, negative = inhibition in assay [1] was -3.84%; in assay [2] it was 3.75%; in assay [3], 2.21%; in assay [4], -9.23%; in assay [5] it was -1.53%.
